Data on 31 sequences can be found in PMC12820563.

The list shows a part of the results. The list includes weakly bound sequences.

For this test, the target named is T1, MBP-FoxP3dN (UniProt Q99JB6).
T1 sequence: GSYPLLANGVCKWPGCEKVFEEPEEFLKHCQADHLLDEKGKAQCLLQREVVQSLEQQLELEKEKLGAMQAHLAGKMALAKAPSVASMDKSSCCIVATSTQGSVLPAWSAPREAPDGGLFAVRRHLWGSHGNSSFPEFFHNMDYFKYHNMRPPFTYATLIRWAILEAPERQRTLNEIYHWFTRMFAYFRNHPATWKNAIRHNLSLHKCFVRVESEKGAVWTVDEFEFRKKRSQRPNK
The test can be described thus: PD-seq (MBP pull-down with sequencing). To be noted: 20 mM Tris-HCl pH 7.5, 100 mM NaCl, 1.5 mM MgCl2, 0.4 uM protein, 0.1 uM dsDNA library, 30 min, room temperature, amylose pull-down; high values mean tight binding; double strand, one strand shown.
For “GATGATTGTTCTCCCAGCTGATGAATTTCTAACATCGAGTAAACAAATTTTCCTAATCTTTCTGTTCAAGCGCCATCTAC”, the binding signal (RPM ratio (pull-down/input)) is 0.367.
On to “GATGATTGTTCTCCCAGCTGATGAATTCCAGAAATCGAGTAAACAAATTTTCCTAATCTTTCTGTTCAAGCGCCATCTAC”, for which the binding signal (RPM ratio (pull-down/input)) is 0.207.
As to “GATGATTGTTCTCCCAGCTGATGAATTTGATGAATCGAGTAAACAAATTTTCCTAATCTTTCTGTTCAAGCGCCATCTAC”, the binding signal (RPM ratio (pull-down/input)) is 0.382.
Take “GATGATTGTTCTCCCAGCTGATGAATTTACCCCCTCGAGTAAACAAATTTTCCTAATCTTTCTGTTCAAGCGCCATCTAC”: the binding signal (RPM ratio (pull-down/input)) is 0.443.
As for “GATGATTGTTCTCCCAGCTGATGAATTAGCGTTGTCGAGTAAACAAATTTTCCTAATCTTTCTGTTCAAGCGCCATCTAC”, the binding signal (RPM ratio (pull-down/input)) came out at 1.33.
As for “GATGATTGTTCTCCCAGCTGATGAATTTAGACCTTCGAGTAAACAAATTTTCCTAATCTTTCTGTTCAAGCGCCATCTAC”, the binding signal (RPM ratio (pull-down/input)) turned out to be 0.456.
Consider “GATGATTGTTCTCCCAGCTGATGAATTGTGCCATTCGAGTAAACAAATTTTCCTAATCTTTCTGTTCAAGCGCCATCTAC”, for which the binding signal (RPM ratio (pull-down/input)) was 6.37.
On to “GATGATTGTTCTCCCAGCTGATGAATTTAAGAACTCGAGTAAACAAATTTTCCTAATCTTTCTGTTCAAGCGCCATCTAC”, for which the binding signal (RPM ratio (pull-down/input)) worked out at 0.199.
On to “GATGATTGTTCTCCCAGCTGATGAATTAGCTAATTCGAGTAAACAAATTTTCCTAATCTTTCTGTTCAAGCGCCATCTAC”, for which the binding signal (RPM ratio (pull-down/input)) is 0.301.
Take “GATGATTGTTCTCCCAGCTGATGAATTCTCAAAATCGAGTAAACAAATTTTCCTAATCTTTCTGTTCAAGCGCCATCTAC”: the binding signal (RPM ratio (pull-down/input)) is 0.201.
As to “GATGATTGTTCTCCCAGCTGATGAATTACAATCGTCGAGTAAACAAATTTTCCTAATCTTTCTGTTCAAGCGCCATCTAC”, the binding signal (RPM ratio (pull-down/input)) is 0.704.
As to “GATGATTGTTCTCCCAGCTGATGAATTTGCCGTATCGAGTAAACAAATTTTCCTAATCTTTCTGTTCAAGCGCCATCTAC”, the binding signal (RPM ratio (pull-down/input)) worked out at 1.13.
Next, “GATGATTGTTCTCCCAGCTGATGAATTCGGCGCGTCGAGTAAACAAATTTTCCTAATCTTTCTGTTCAAGCGCCATCTAC”: 1.43; “GATGATTGTTCTCCCAGCTGATGAATTCTGCTGGTCGAGTAAACAAATTTTCCTAATCTTTCTGTTCAAGCGCCATCTAC”: 1.19.
As to “GATGATTGTTCTCCCAGCTGATGAATTAGTGGGTTCGAGTAAACAAATTTTCCTAATCTTTCTGTTCAAGCGCCATCTAC”, the binding signal (RPM ratio (pull-down/input)) was found to be 1.17.
As to “GATGATTGTTCTCCCAGCTGATGAATTGACTGCATCGAGTAAACAAATTTTCCTAATCTTTCTGTTCAAGCGCCATCTAC”, the binding signal (RPM ratio (pull-down/input)) was found to be 0.987.
For “GATGATTGTTCTCCCAGCTGATGAATTGTTTTAATCGAGTAAACAAATTTTCCTAATCTTTCTGTTCAAGCGCCATCTAC”, the binding signal (RPM ratio (pull-down/input)) was 0.888.
“GATGATTGTTCTCCCAGCTGATGAATTGTCGTGGTCGAGTAAACAAATTTTCCTAATCTTTCTGTTCAAGCGCCATCTAC”: the binding signal (RPM ratio (pull-down/input)) was found to be 0.521.
Next, “GATGATTGTTCTCCCAGCTGATGAATTGTTGATGTCGAGTAAACAAATTTTCCTAATCTTTCTGTTCAAGCGCCATCTAC”: 3.59; “GATGATTGTTCTCCCAGCTGATGAATTGGGGTCGTCGAGTAAACAAATTTTCCTAATCTTTCTGTTCAAGCGCCATCTAC”: 0.545.
“GATGATTGTTCTCCCAGCTGATGAATTGTTAAATTCGAGTAAACAAATTTTCCTAATCTTTCTGTTCAAGCGCCATCTAC”: the binding signal (RPM ratio (pull-down/input)) came to 0.358.
Next, “GATGATTGTTCTCCCAGCTGATGAATTATAGTTATCGAGTAAACAAATTTTCCTAATCTTTCTGTTCAAGCGCCATCTAC”: 1.12; “GATGATTGTTCTCCCAGCTGATGAATTGCGCTCCTCGAGTAAACAAATTTTCCTAATCTTTCTGTTCAAGCGCCATCTAC”: 1.51; “GATGATTGTTCTCCCAGCTGATGAATTCTAGAGCTCGAGTAAACAAATTTTCCTAATCTTTCTGTTCAAGCGCCATCTAC”: 0.202.
The figure for “GATGATTGTTCTCCCAGCTGATGAATTACGCAGCTCGAGTAAACAAATTTTCCTAATCTTTCTGTTCAAGCGCCATCTAC” is 1.78; for “GATGATTGTTCTCCCAGCTGATGAATTGGAGTATTCGAGTAAACAAATTTTCCTAATCTTTCTGTTCAAGCGCCATCTAC” it is 1.02; for “GATGATTGTTCTCCCAGCTGATGAATTTACTGTTTCGAGTAAACAAATTTTCCTAATCTTTCTGTTCAAGCGCCATCTAC” it is 1.64.
With “GATGATTGTTCTCCCAGCTGATGAATTGGAGAGATCGAGTAAACAAATTTTCCTAATCTTTCTGTTCAAGCGCCATCTAC”, the binding signal (RPM ratio (pull-down/input)) was 0.188.
“GATGATTGTTCTCCCAGCTGATGAATTGACCTTATCGAGTAAACAAATTTTCCTAATCTTTCTGTTCAAGCGCCATCTAC”: the binding signal (RPM ratio (pull-down/input)) amounted to 0.446.
On to “GATGATTGTTCTCCCAGCTGATGAATTCGCCTTTTCGAGTAAACAAATTTTCCTAATCTTTCTGTTCAAGCGCCATCTAC”, for which the binding signal (RPM ratio (pull-down/input)) was 1.85.
As for “GATGATTGTTCTCCCAGCTGATGAATTTCCTGAGTCGAGTAAACAAATTTTCCTAATCTTTCTGTTCAAGCGCCATCTAC”, the binding signal (RPM ratio (pull-down/input)) is 0.196.
